Where two headings read alike, the source gives them in different places.
Key:
[1] = molecular target: T1, hPD-L1 binding to hPD-1 (Homo sapiens, UniProt Q9NZQ7); assay: AlphaLISA blocking assay (Example 3); conditions: His6-tagged Z variants 250 nM to 12 pM; 10 nM biotinylated hPD-L1; read-out: IC50 (M), inhibiting binding of PD-L1 to PD-1
T1 construct: 1086-PD-050 (hPD-1)
Experimental: AlphaLISA blocking assay: The potential of Z variants to inhibit binding of PD-L1 to PD-1 was analyzed by AlphaLISA and recordings in an EnSpire multiplate reader 2300 (Perkin Elmer). hPD-1 (human PD-1 Fc-chimera; R&D Systems, cat. no. 1086-PD-050) was immobilized on AlphaLISA Acceptor beads (Perkin Elmer, cat. no. 6772002) according to the manufacturer's recommendations. Stepwise serial dilutions 1:3 of Hiss-tagged Z variants to final concentrations of 250 nM to 12 pM were made in a 384 plate (Perkin Elmer, cat. no. 6005350) and incubated for 1 h with 10 nM biotinylated hPD-L1 in AlphaLISA buffer (Perkin Elmer, cat. no. AL000F). hPD-1-coated Acceptor beads were added to a final concentration of 10 μg/ml and incubated for 1 h. Finally, streptavidin coated Donor beads (Perkin Elmer, cat. no. 6772002) were added to a final concentration of 40 μg/ml and incubated for 30 min. All incubations were performed at RT in the dark. The plate was analyzed in the EnSpire instrument and the IC50 values were calculated using GraphPad Prism 5.

[2] = molecular target: RhPD-L1; assay: Biacore kinetic analysis of maturated Z variants, RhPD-L1; assay type: binding, rhesus monkey
Experimental: hPD-L1, hPD-L2, hB7-H3, hB7-H4 and mPD-L1 were immobilized in separate flow cells on the carboxylated dextran layer of different CM5 chip surfaces (GE Healthcare, cat. no. BR100012). The immobilization was performed using amine coupling chemistry according to the manufacturer's protocol and using HBS-EP as running buffer (0.01 M HEPES pH 7.4, 0.15 M NaCl, 3 mM EDTA, 0.005% v/v Surfactant P20, GE Healthcare, cat. no. BR100188). […] One flow cell surface on each chip was activated and deactivated for use as blank during analyte injections. In the kinetic experiment, HBS-EP was used as running buffer and the flow rate was 50 μl/min. The analytes, i.e. the Z variants, were each diluted in HBS-EP buffer within a concentration range of 1000 to 0.01 nM and injected for 5 min, followed by dissociation in running buffer for 15-25 min. After dissociation, the surfaces were regenerated with one or two injections of 0.1% SDS. Kinetic constants were calculated from the sensorgrams using the Langmuir 1:1 model of BiaEvaluation software 4.1 (GE Healthcare).
Biacore kinetic and specificity analysis: Kinetic constants (ka and kd) and affinities (KD) for human PD-L1 and rhesus monkey PD-L1 (RhPD-L1; rhesus PD-L1/Fc Chimera, Sino Biological Inc., cat. no. 90251-C02H) were determined for 24 matured Hiss-tagged Z variants (specified in Example 6). The Z variants were also tested for binding against the sequence-related proteins hPD-L2, hB7-H3 and hB7-H4. The Biacore analyses were performed essentially as described in Example 3, however a flow rate of 30 μl/min was used. […] In a first binding kinetic analysis, the 24 Z variants were injected at concentrations of 5 and 50 nM over chips immobilized with hPD-L1 and RhPD-L1, respectively. […] In the specificity test, i.e. the binding analysis against hPD-L2, hB7-H3 and hB7-H4, the 24 Z variants were injected at a concentration of 500 nM.

[3] = molecular target: hPD-L1 (Homo sapiens, UniProt Q9NZQ7); assay: ELISA EC50 analysis (target titration) of primary Z variants; assay type: binding; conditions: periplasmic Z-ABD fusions captured on anti-ABD antibody; biotinylated hPD-L1 40 nM diluted 1:4 to 32 pM
Sequence of hPD-L1 (Q9NZQ7 19-290): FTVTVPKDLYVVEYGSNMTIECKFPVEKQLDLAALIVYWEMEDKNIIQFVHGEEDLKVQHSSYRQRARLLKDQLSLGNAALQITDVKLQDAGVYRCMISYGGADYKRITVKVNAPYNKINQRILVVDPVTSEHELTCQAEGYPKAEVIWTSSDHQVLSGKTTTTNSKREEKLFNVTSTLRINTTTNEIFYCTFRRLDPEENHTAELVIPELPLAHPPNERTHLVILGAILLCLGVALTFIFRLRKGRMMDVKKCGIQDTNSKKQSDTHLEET
Experimental: ELISA screening of Z variants: The binding of Z variants to hPD-L1 was analyzed in ELISA assays. Half-area 96-well ELISA plates (Costar, cat. no. 3690) were coated at 4° C. overnight with 2 μg/ml of an anti-ABD goat antibody (produced in-house) diluted in coating buffer (50 mM sodium carbonate, pH 9.6; Sigma, cat. no. C3041). The antibody solution was poured off and the wells were washed in water and blocked with 100 μl of PBSC (PBS supplemented with 0.5% casein; Sigma, cat. no. C8654) for 1 to 3 h at RT. The blocking solution was discarded and 50 μl periplasmic solutions, diluted 1:1 with PBST 0.05%, were added to the wells and incubated for 1.5 to 2.5 h at RT under slow agitation. As a blank control, PBST 0.05% was added instead of a periplasmic sample. The supernatants were poured off and the wells were washed 4 times with PBST 0.05%. Then, 50 μl of biotinylated hPD-L1 at a concentration of 0.32 nM in PBSC was added to each well. The plates were incubated for 1 h at RT followed by washes as described above. Streptavidin conjugated HRP (Thermo Scientific, cat. no. N100) diluted 1:30,000 in PBSC, was added to the wells and the plates were incubated for approximately 1 h. After washing as described above, 50 μl ImmunoPure TMB substrate (Thermo Scientific, cat. no. 34021) was added to the wells and the plates were treated according to the manufacturer's recommendations.
EC50 analysis of Z variants: A selection of PD-L1 binding Z variants was subjected to an analysis of the response against a dilution series of biotinylated hPD-L1 following the procedure described above. The Z variants were diluted 1:1 in PBST 0.05%. Biotinylated hPD-L1 was added at a concentration of 40 nM and diluted stepwise 1:4 down to 32 pM. As a background control, all Z variants were also assayed with no target protein added. Periplasm samples containing the PD-L1 binding Z variant Z13112 (SEQ ID.NO:777) were included on each plate and analyzed as positive control. […] Data were analyzed using GraphPad Prism 5 and non-linear regression, and EC50 values (the half maximal effective concentration) were calculated.

T1 sequence (Q9NZQ7 19-239 limits assumed): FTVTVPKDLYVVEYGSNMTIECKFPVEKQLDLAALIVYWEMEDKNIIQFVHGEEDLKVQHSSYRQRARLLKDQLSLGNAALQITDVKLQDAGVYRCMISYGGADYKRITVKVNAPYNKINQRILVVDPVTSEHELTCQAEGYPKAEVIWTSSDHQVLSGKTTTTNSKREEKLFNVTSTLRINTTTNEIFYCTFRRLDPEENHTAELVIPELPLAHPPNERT

| Substance | IC50 [1] | Kd ([2]; His6-tagged Z variants at 135, 45, 15, 5 and 1.67 nM, read-out: RhPD-L1 KD) | Kd ([2]; ranking experiment, His6-tagged Z variants at 5 and 50 nM, 1:1 model, read-out: RhPD-L1 KD (M), approximate affinity constant) | EC50 [3] |
| --- | --- | --- | --- | --- |
| Z13091: primary PD-L1 binding Z variant (VDAKYAKERNNAAFEILRLPNLTNGQHWAFIWKLADDPSQSSELLSEAKKLNDSQAPK; Engineered PD-L1 binding polypeptide) | 6.9e-09 M | 5.4e-10 M | 5.2e-09 M | 0.22 nM |
| Z13156: primary PD-L1 binding Z variant (VDAKYAKERNQAAVEILQLPNLTAAQYWAFIWKLDDDPSQSSELLSEAKKLNDSQAPK; Engineered PD-L1 binding polypeptide) | 1.4e-09 M |  |  |  |

From patent US11155596B2, “Polypeptide” (AFFIBODY AB, priority 2016, dated 2021)
